# Laboratory results taken from article PMC12136788.
# The list shows a part of the results.
# B1: chr1:100520103:100520216:+|3pUTR|ENSG00000079335|unk|FALSE|unique (ssRNA)
# RNA: GGGAGUUCUACAGUCCGACGAUCUUACACAUGUGCCUACAUAGACACACCAAGAAGUGGAUGUAUAUAAUAUAGAAAGUAUAUAGCAAAGUAAUUUUACUCUGAUAAUAAAAAUUGUUUGACAUGUAUUUUGUUAUGAAUAGUCAACAGAGGAUUGAGCAUCA
# B2: chr5:40972473:40972581:+|CDS|ENSG00000112936|unk|FALSE|unique (ssRNA)
# RNA: GGGAGUUCUACAGUCCGACGAUCAAAACCUUUCUACACAGUUGGUGAGAAGGUGACUGUUUCCUGUUCAGGUGGCAUGUCCUUAGAAGGUCCUUCAGCAUUUCUCUGUGGCUCCAGCCUUAAGUGGAGUCCUGAGAUGAAGAACAACAGAGGAUUGAGCAUCA
# B3: chr9:124878635:124878736:-|3pUTR|ENSG00000136935|msi1|total|mutant (ssRNA)
# RNA: GGGAGUUCUACAGUCCGACGAUCCCAGCCAUUGAACUGGUCCCACACGCACCCCAGGCCCCACUCCUCGGCAGUUUCAGGUGCCGCUGUGGGGCCCGUUCCCCGGUCUGUACUCACUUCCGGGAGGCUUCACUGACCCGGCUUCAACAGAGGAUUGAGCAUCA
# B4: chr2:201645282:201645383:-|CDS|ENSG00000082126|unk|FALSE|unique (ssRNA)
# RNA: GGGAGUUCUACAGUCCGACGAUCUACUAUCCAUAUUUUUCUAUUUCUCCUAAAGGAUGAAGACCUACAAGAGAUGGAAAAUUUAGCCCAAAGAAUGGAAACUCAGUUUGGCCAAUUUUUUGAUCAUGUGAUUGUGAAUGACAGCAACAGAGGAUUGAGCAUCA
# B5: chr17:50110931:50111032:+|3pUTR|ENSG00000005882|unk|total|mutant (ssRNA)
# RNA: GGGAGUUCUACAGUCCGACGAUCUGUGCCCAGACAUGUGUGCUCAGGGUGGCUUUCUCCCCCGGACCUUCUGUGUAUACCGUCCGUUUUAUAACCCUGAAUGCCCCCACCCUUCCCCUAAGCACACAGGGGUUAAAGCUGUGUCAACAGAGGAUUGAGCAUCA
# B6: chr2:216674221:216674322:-|3pUTR|ENSG00000115461|msi1|FALSE|unique (ssRNA)
# RNA: GGGAGUUCUACAGUCCGACGAUCGCAUGCCCCAUCUCUCUGCACAGCUGUCCCCUAAACCCAACUCACGUUUCUGUAUGUCUUAGGCCAGUAUCCCAAACCUCUUCCACGUCACUGUUCUUUCCACCCAUUCUCCCUUUGCAUCAACAGAGGAUUGAGCAUCA
# B7: chr5:111496093:111496242:-|3pUTR|ENSG00000164211|unk|total|mutant (ssRNA)
# RNA: GGGAGUUCUACAGUCCGACGAUCUUUACAUGUACCGUUAAAUAUUAAAAUUCAUCUCUUGCAGUUCAAUAAAAGCUACCGUACCGAUUUUAUUUUUAAGAAGUUUAUAUAAUUCUUUUGUGAACCAAUAUGUAAAACCCGAAUCAACAGAGGAUUGAGCAUCA
# B8: chr3:62294137:62294238:+|3pUTR|ENSG00000144724|msi1|total|mutant (ssRNA)
# RNA: GGGAGUUCUACAGUCCGACGAUCUGAGACCCUUCCGUUAUUCUCCAUUAAUGCUUCUCCGUUUGUAAUACCAUACCUCACAGCCGGCCGAAGAAUGAAAACUUCUGCAGGUGUGUAAUUUUGAAACCCGUCCUCUAAAAAUUCCAACAGAGGAUUGAGCAUCA
# B9: chr11:108173179:108173289:-|CDS|ENSG00000149308|unk|total|mutant (ssRNA)
# RNA: GGGAGUUCUACAGUCCGACGAUCUGGUUCCAAGUCAUCAGAUUCCCGUGAAGUUCACAAGAGUAAAACCGAAAUUAAUGUGUCCGAACCAGUUAUGUCACAGCUAUCAAAUUGCCAAGAUAAUUCUUGUCUUCAAAGUGAAAUCAACAGAGGAUUGAGCAUCA
# B10: ENSG00000084652:stop:overlap|stop_codon|ENSG00000084652|stop_codon|NA|stop_codon (ssRNA)
# RNA: GGGAGUUCUACAGUCCGACGAUCCACCGAGCACAGAAGCAUCAGGCCAGACUGGGCCUCAAGAGCCCACCUCCGCCAGGGCCUAGAGAGCCUGGUGUUGGGUCAUGCUGGGAAGGGAGCGGCAGCCCAGCCAGGCCUGGCCCACAACAGAGGAUUGAGCAUCA
# B11: chr1:119916538:119916684:-|CDS|ENSG00000134250|unk|total|mutant (ssRNA)
# RNA: GGGAGUUCUACAGUCCGACGAUCAGAGACACCUCUGUUUCUUGCUGCCCGGGAGGGGAGCUAUGAAGCAGCCAAGAUCCUGUCCGACCAUUUUGCCAAUCGAGACAUCACAGACCAUAUGGAUCGUCUUCCCCGGGAUGUGGCCAACAGAGGAUUGAGCAUCA
# B12: chr6:105097214:105097376:-|3pUTR|ENSG00000112276|msi1|FALSE|unique (ssRNA)
# RNA: GGGAGUUCUACAGUCCGACGAUCCAUGCCUUGGUUUCCUCUCCCUUCCCUCUUUCCAAUCCUGGUUUCCUAACCUCCUCUUGUAGUAAUUCUCAACUCAACUCAAAGUCCCAAGAAUUUGGAAUGGUAGGAUGCUGUGCGGGGCAACAGAGGAUUGAGCAUCA
# B13: chr8:122953881:122953982:+|CDS|ENSG00000178764|msi1|FALSE|unique (ssRNA)
# RNA: GGGAGUUCUACAGUCCGACGAUCGAGUCGAGCGUUGUGGAUUACGUGGAGGUGACGGUCGGGGAGGAGGAUGCGAUCUCAGAUAGAUCAGAUAGCUGGAGUCAGGCUGCGGCAGAAGGUGUGUCGGAACUGGCUGAAUCAGACCAACAGAGGAUUGAGCAUCA
# B14: chr6:137492198:137493351:-|three_prime_utr|ENSG00000177468|control|control|control (ssRNA)
# RNA: GGGAGUUCUACAGUCCGACGAUCGAGAUCUCAGACUCCACUUGACCCCCGGAGGGAAAGGACCAAAAUCAAACCGCAAUUUCUAGGUGGUAGCAAAGGGGGACUCGAACCAGAUGUCGUGUGUUUUGCAUGCAUGCUUCUUUUCAACAGAGGAUUGAGCAUCA
# B15: ENSG00000198589:be:win_4751|CDS|ENSG00000198589|bound_else_gene|NA|bound_elsewhere_windowed (ssRNA)
# RNA: GGGAGUUCUACAGUCCGACGAUCGCACUUUAACUACGGCAUCAGUGGAAGAAUCUGAAAGCACAUCAUCUGCUCGAAGGAGGGACUCAGGCAUUGGGGAAGAAACAGCCACUGGUUUAGGAAGCCAUGUGGAAGUAACUCCUCCAACAGAGGAUUGAGCAUCA
# B16: chr22:38485951:38486139:-|CDS|ENSG00000100201|unk|FALSE|bound_elsewhere (ssRNA)
# RNA: GGGAGUUCUACAGUCCGACGAUCUAGUAGCACCACCUCAACUGGGAGAAGUUCACAGAGCUCUAGCCAGCAGUUUAGUGGGAUAGGCCGGUCUGGGCAGCAGCCACAGCCACUGAUGUCACAACAGUUUGCACAGCCUCCGGGCAACAGAGGAUUGAGCAUCA
# B17: ENSG00000070961:be:win_1501|CDS|ENSG00000070961|bound_else_gene|NA|bound_elsewhere_windowed (ssRNA)
# RNA: GGGAGUUCUACAGUCCGACGAUCCCUGAACCAGAAGCUAUUCCACCAAAUAUUUUGUCCUAUCUUGUAACAGGAAUUUCUGUGAAUUGUGCUUAUACAUCAAAAAUAUUGCCACCAGAGAAAGAGGGUGGAUUACCUCGUCACCAACAGAGGAUUGAGCAUCA
# B18: ENSG00000150753:stop:overlap|stop_codon|ENSG00000150753|stop_codon|NA|stop_codon (ssRNA)
# RNA: GGGAGUUCUACAGUCCGACGAUCUCAGGAUGAUGAAAUUGGAGAUGGAACCACAGGAGUGGUUGUCCUGGCUGGUGCCUUGUUAGAAGAAGCGGAGCAAUUGCUAGACCGAGGCAUUCACCCAAUCAGAAUAGCCGAUGGCUACAACAGAGGAUUGAGCAUCA
# B19: chr19:4361374:4361475:-|3pUTR|ENSG00000141985|msi1|total|mutant (ssRNA)
# RNA: GGGAGUUCUACAGUCCGACGAUCCAGGACCCCACACUUGGGUGGGGGGGCUUAUCUGGGUGGGUGGGGAUGCCUGUUUACACCCGCGCUGACUCCCAACGGUGACGGCUCCCUUCCCCACUCCAUGGCGCCAGCCUCCUCCCCCAACAGAGGAUUGAGCAUCA
# B20: chr7:76328962:76329048:-|3pUTR|ENSG00000170027|msi1_unk|FALSE|overlapping (ssRNA)
# RNA: GGGAGUUCUACAGUCCGACGAUCACCUGAGGUCUCAUUCAUCCUUAUGGUUUAGGCCUUGCCAGUUUUCCGAAGUCUCUGAUUAGUUGACAGUAUUAACACUAAAUUGCAGUUUACAGUAUUUCUACAUUACAGCCAUAUGUACAACAGAGGAUUGAGCAUCA
# B21: chr5:150649000:150649101:+|CDS|ENSG00000171992|msi1|FALSE|bound_elsewhere (ssRNA)
# RNA: GGGAGUUCUACAGUCCGACGAUCCAGGCCUUUUGGGAUCCAGGCGCCAGGGGGCACCAGCCAGAUGGAGAGGAGCCCCAUGCUAGAGAGACGACAUUUUGGGGAGAAGGCCCCGGCUCCCCAGCCCCCCAGUUUGCCAGACAGCAACAGAGGAUUGAGCAUCA
# B22: chr20:37404728:37404829:+|3pUTR|ENSG00000197122|msi1|FALSE|unique (ssRNA)
# RNA: GGGAGUUCUACAGUCCGACGAUCGGCCUCUGCAACUGCUCAGCUCUGGUCCAGGCCCUGUGGCAGGACACACAUGGUGAGCCUAGCCCUGGGACAUCAGGAGACUGGGCUCUGGCUCUGUUCGGCCUUUGGGUGUGUGGUGGACAACAGAGGAUUGAGCAUCA
# Target: MSI1 full-length (mouse, UniProt Q61474 1-362)
# Assay: nsRBNS (natural sequence RNA bind-n-seq); RBNS binding buffer (assumed for nsRBNS): 25 mM Tris pH 7.5, 150 mM KCl, 3 mM MgCl2, 0.01% Triton X-100, 500 ug/ml BSA, 20 U/ml SUPERase-In, 4 C; UNK is unkempt and MSI1 is Musashi-1; names of the RNAs are library labels; protein concentration not given here; high values mean tight binding
# Chain of UniProt Q61474 (Q61474 whole entry): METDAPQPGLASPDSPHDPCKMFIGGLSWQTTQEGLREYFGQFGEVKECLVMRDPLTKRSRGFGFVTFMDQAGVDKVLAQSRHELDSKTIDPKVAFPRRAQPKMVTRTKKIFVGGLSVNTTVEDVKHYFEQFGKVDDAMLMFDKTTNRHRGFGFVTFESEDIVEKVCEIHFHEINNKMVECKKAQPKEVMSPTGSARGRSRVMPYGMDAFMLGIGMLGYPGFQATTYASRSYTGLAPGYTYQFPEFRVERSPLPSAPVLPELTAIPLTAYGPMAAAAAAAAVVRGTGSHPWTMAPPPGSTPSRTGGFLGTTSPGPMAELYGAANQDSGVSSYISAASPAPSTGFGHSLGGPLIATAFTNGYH
row,Binder,binding signal [enrichment R]
1,B1,3.97
2,B2,0.339
3,B3,0.386
4,B4,0.512
5,B5,0.524
6,B6,0.888
7,B7,3.85
8,B8,0.604
9,B9,0.203
10,B10,0.587
11,B11,0.446
12,B12,0.653
13,B13,0.739
14,B14,0.62
15,B15,0.366
16,B16,0.588
17,B17,0.511
18,B18,0.662
19,B19,0.42
20,B20,3.16
21,B21,0.703
22,B22,0.357
